{
  "source": "PubChem BioAssay AID1460",
  "about": "(National Center for Advancing Translational Sciences (NCATS), 2008)",
  "note": "“And” between values parts separate entries of the source, which are not always exact repeats. Identical values can stand only once. The whole screen tested about 270,000 compounds, of which about 5,800 (2.1%) were called active. Inconclusive means that the source gave no clear call. Such entries were picked first, then a sample of the others. The call rests on the fitted dose curve; in most records, active means well fitted inhibition curve with a large enough effect; inconclusive means small, poorly fitted or top-dose-only effect; inactive means flat fitted curve, though single readings scatter. Potencies of inconclusive entries are doubtful fits and often do not repeat.",
  "data": [
    {"molecular_target": "Microtubule-associated protein tau (Homo sapiens) (UniProt P10636)", "sequence (P10636 whole entry, looked up, the tested form may be a part)": "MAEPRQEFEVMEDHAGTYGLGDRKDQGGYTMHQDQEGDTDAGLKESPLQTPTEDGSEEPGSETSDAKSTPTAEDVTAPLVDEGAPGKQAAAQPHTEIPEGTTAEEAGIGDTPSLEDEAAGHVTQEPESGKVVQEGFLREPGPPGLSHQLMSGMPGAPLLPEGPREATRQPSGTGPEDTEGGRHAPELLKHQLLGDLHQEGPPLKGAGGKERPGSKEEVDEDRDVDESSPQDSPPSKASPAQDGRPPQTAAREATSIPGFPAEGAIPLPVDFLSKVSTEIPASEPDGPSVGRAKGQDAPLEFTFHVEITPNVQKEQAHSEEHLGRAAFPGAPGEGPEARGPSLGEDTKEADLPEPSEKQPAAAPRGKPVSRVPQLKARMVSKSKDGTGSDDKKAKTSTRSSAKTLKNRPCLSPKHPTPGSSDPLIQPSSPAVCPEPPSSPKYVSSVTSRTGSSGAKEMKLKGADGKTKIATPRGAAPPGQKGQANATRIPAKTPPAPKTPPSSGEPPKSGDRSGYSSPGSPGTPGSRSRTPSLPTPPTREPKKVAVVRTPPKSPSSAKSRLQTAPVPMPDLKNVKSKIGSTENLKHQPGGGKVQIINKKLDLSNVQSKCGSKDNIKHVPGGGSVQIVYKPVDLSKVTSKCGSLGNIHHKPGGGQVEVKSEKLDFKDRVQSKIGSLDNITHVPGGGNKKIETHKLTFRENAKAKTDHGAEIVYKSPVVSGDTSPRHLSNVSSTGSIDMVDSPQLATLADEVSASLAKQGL", "assay": "qHTS for Inhibitors of Tau Fibril Formation, Thioflavin T Binding; further: nearly all actives have a fitted effect of over 55% in size; further: potency means the concentration at half of the fitted maximal effect; tags describe the fitted curve by direction and shape", "conditions": "recombinant tau K18 P301L (four-repeat tau fragment), heparin-induced fibrillization, ThT fluorescence; series mostly up to 57.4 µM", "in_short": "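Heparin-induced fibrillization of the P301L-mutant K18 repeat-domain fragment of human tau was followed by ThT binding in quantitative high-throughput format.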", "values": [
      {"compound": "CCc1ccc(C2CC(=O)c3c([nH]c(C(=O)OC4CCCC4)c3C)C2)cc1", "note": "(stereo unspecified)", "Potency": "inactive"},
      {"compound": "COc1cccc(-c2nc(CS(=O)(=O)CC(=O)N3CCN(c4cc(C)ccc4C)CC3)c(C)o2)c1", "Potency": "inconclusive: 3.55 µM [inhibitor, partial curve, poor fit]"},
      {"compound": "COc1cnc(-c2ccccn2)nc1Sc1cccc(Cl)c1", "Potency": "inconclusive: 17.8 µM [inhibitor, partial curve]"},
      {"compound": "COC(=O)c1ccc(C(=O)OC)c(NC(=O)COc2ccccc2OC)c1", "Potency": "inconclusive: 20 µM [inhibitor, partial curve]"},
      {"compound": "C/C(=N\\NS(=O)(=O)c1ccc(Cl)c([N+](=O)[O-])c1)c1cc2ccccc2o1", "Potency": "inconclusive: 12.6 µM [inhibitor, partial curve]"},
      {"compound": "O=C(NCc1ccccc1)C1=C[C@H](c2ccc3c(c2)OCO3)C[C@H](OCCCCO)O1", "Potency": "inconclusive: 25.1 µM [inhibitor, single point]"},
      {"compound": "CCc1ccccc1NS(=O)(=O)c1ccc2[nH]cc(C(=O)N(CC)Cc3ccccc3)c(=O)c2c1", "Potency": "inactive"},
      {"compound": "CCCCn1cnc2cc(NCc3ccccc3Cl)ccc21", "Potency": "inconclusive: 31.6 µM [inhibitor, single point]"},
      {"compound": "COc1ccc(-c2[nH]c(-c3ccc(Cl)cc3)nc2SCC(=O)NCC2CCCO2)cc1", "note": "(stereo unspecified)", "Potency": "inconclusive: 28.2 µM [inhibitor, partial curve, poor fit]"},
      {"compound": "COc1ccc(N2CCN(C(=O)/C=C/c3ccco3)CC2)cc1", "Potency": "inconclusive: 12.6 µM [inhibitor, partial curve]"},
      {"compound": "COc1ccc(NC(=O)CCc2nc3ccccc3s2)c(OC)c1", "Potency": "inconclusive: 31.6 µM [inhibitor, single point]"},
      {"compound": "Cc1ccc(-n2ncc3c(Nc4cccc(C(=O)O)c4)ncnc32)cc1", "Potency": "inconclusive: 31.6 µM [activator, partial curve] and inconclusive: 28.2 µM [activator, partial curve]"},
      {"compound": "COc1ccccc1CNS(=O)(=O)N(C)C", "Potency": "inactive"},
      {"compound": "CCC(=O)N1CCN(c2ccc(NC(=S)NC(=O)c3cccc([N+](=O)[O-])c3)cc2)CC1", "Potency": "inconclusive: 3.98 µM [inhibitor, partial curve]"},
      {"compound": "CC(C)C[C@@H]1NC(=O)[C@H](C(C)C)NC(=O)c2cc([N+](=O)[O-])cc(I)c2NCC[C@@H](C(N)=O)NC1=O", "Potency": "inconclusive: 17.8 µM [inhibitor, partial curve]"},
      {"compound": "COc1ccc2c(c1)cc1c(=O)n(CC(=O)NC(C)CCc3ccccc3)nc(C)n12", "note": "(stereo unspecified)", "Potency": "inactive"},
      {"compound": "COC(=O)c1cc(Cl)c(NC(=O)c2ccc(C(C)(C)C)cc2)cc1OC", "Potency": "inconclusive: 17.8 µM [inhibitor, partial curve]"},
      {"compound": "COc1cc(/C=N/n2cnnc2)ccc1OC(=O)c1ccncc1", "Potency": "inconclusive: 7.08 µM [inhibitor, partial curve]"},
      {"compound": "COc1ccc(Nc2nc(N)nc(CN3CCC(Cc4ccccc4)CC3)n2)cc1", "Potency": "inconclusive: 17.8 µM [inhibitor, partial curve]"},
      {"compound": "COc1cc(/C=N/NC(=O)c2cccnc2)ccc1OCC(=O)Nc1ccccc1Cl", "Potency": "inconclusive: 3.55 µM [inhibitor, full curve]"},
      {"compound": "COc1cccc([C@@H]2Oc3ccc(Br)cc3C(=O)[C@H]2OC(=O)NCc2ccco2)c1", "Potency": "inconclusive: 14.1 µM [inhibitor, partial curve, poor fit]"},
      {"compound": "COc1ccc(Nc2oc(COc3ccc(OC)cc3)nc2C#N)cc1", "Potency": "inconclusive: 28.2 µM [inhibitor, partial curve]"},
      {"compound": "O=C(CSc1nc2ccccc2[nH]1)Nc1nc(-c2cccc(Br)c2)cs1", "Potency": "inactive"},
      {"compound": "Clc1ccc(/C=N\\Nc2ccccc2)cc1", "Potency": "inconclusive: 25.1 µM [inhibitor, partial curve, poor fit]"},
      {"compound": "CC(=O)NCc1ccc(C(=O)CCl)cc1", "Potency": "inconclusive: 25.1 µM [inhibitor, single point]"},
      {"compound": "O=C(Nc1nc(-c2cccc3ccccc23)cs1)c1ccc2c(c1)S(=O)(=O)c1ccccc1C2=O", "Potency": "inconclusive: 1.41 µM [inhibitor, full curve]"},
      {"compound": "COc1ccc(C(=O)Nc2ccc3nc(SCC(=O)N4CCc5ccccc54)sc3c2)cc1", "Potency": "inconclusive: 0.501 µM [inhibitor, full curve]"},
      {"compound": "O=C(NCC(c1cccs1)N1CCOCC1)c1ccccc1NS(=O)(=O)c1ccc(Cl)c([N+](=O)[O-])c1", "note": "(stereo unspecified)", "Potency": "inconclusive: 17.8 µM [inhibitor, single point]"},
      {"compound": "Cc1ccc2c(c1)C(c1ccc(F)cc1)N(C(=O)c1ccc(S(=O)(=O)N3CCCCC3)cc1)CC(=O)N2", "note": "(stereo unspecified)", "Potency": "inactive"},
      {"compound": "CCC(=O)N1CCc2cc(Br)cc(S(=O)(=O)CCC(=O)N3CCN(c4cccc(C)c4)C(C)C3)c21", "note": "(stereo unspecified)", "Potency": "inconclusive: 12.6 µM [inhibitor, partial curve]"},
      {"compound": "CSc1nnc(-c2cc3c(-c4ccccc4)nn(C)c3s2)n1C", "Potency": "inconclusive: 14.1 µM [inhibitor, partial curve]"},
      {"compound": "O=C(C(c1ccccc1)c1ccccc1)N1CCOCC1", "Potency": "inactive"},
      {"compound": "CSc1cccc(NC(=O)Nc2ccccc2OCc2cc(=O)n3cc(C)ccc3n2)c1", "Potency": "inconclusive: 28.2 µM [inhibitor, single point]"},
      {"compound": "CC(=O)N=c1c(C#N)cc2c(=O)n3ccccc3nc2n1CCCOC(C)C", "Potency": "inactive"},
      {"compound": "Nc1nn(-c2cccc(F)n2)cc1-c1ccccc1", "Potency": "inconclusive: 12.6 µM [inhibitor, partial curve]"},
      {"compound": "Cc1cc(C)c2sc(NNC(=O)C3COc4ccccc4O3)nc2c1", "note": "(stereo unspecified)", "Potency": "inconclusive: 22.4 µM [inhibitor, partial curve, poor fit]"},
      {"compound": "CCCc1ccc(O)c(N=Cc2cc(Br)cc(OCC)c2O)c1", "Potency": "active: 14.1 µM"},
      {"compound": "CCOc1ccc(NC(=O)c2cccc(OC(=S)N3CCC(C)CC3)c2)cc1", "Potency": "inconclusive: 44.7 µM [inhibitor, single point]"},
      {"compound": "O=C(COC(=O)C1CC2C=CC1C2)NCCc1ccccc1", "note": "(stereo unspecified)", "Potency": "inactive"},
      {"compound": "CCOc1ccc(-c2ccc(/C=C3/C(=N)N4C(C)=CSC4=NC3=O)o2)c([N+](=O)[O-])c1", "Potency": "active: 3.16 µM"},
      {"compound": "COc1ccc(CCNC(=O)c2nc(-c3ccc(Cl)cc3)n3c2CCCCC3)c(OC)c1", "Potency": "inactive"},
      {"compound": "CCC(=O)Nc1ccc(C(=O)Cn2ncc(Cl)c(Cl)c2=O)cc1", "Potency": "inconclusive: 12.6 µM [inhibitor, partial curve]"},
      {"compound": "CCn1c2ccccc2c2cc(NC(C)=O)ccc21", "Potency": "inactive"},
      {"compound": "Cc1nn(CC(=O)Nc2ccc(OC(F)(F)F)cc2)c(=O)c2c(C)n(-c3ccc(Cl)cc3)nc12", "Potency": "inactive"},
      {"compound": "CCOc1ccc2nc(N3CCCC(C(=O)NCCc4ccc(OCC)c(OCC)c4)C3)sc2c1", "note": "(stereo unspecified)", "Potency": "inconclusive: 11.2 µM [inhibitor, partial curve]"},
      {"compound": "Cc1cccc(C)c1Nc1c(-c2ccccn2)nc2c(C)cccn12", "Potency": "inconclusive: 3.16 µM [inhibitor, partial curve, poor fit]"},
      {"compound": "O=C(Nc1ccc([N+](=O)[O-])cn1)c1ccc2c(c1)OCO2", "Potency": "inconclusive: 2.51 µM [inhibitor, full curve]"},
      {"compound": "COc1ccc(CNC(C)C2COc3ccccc3O2)c(OC)c1", "note": "(stereo unspecified)", "Potency": "inactive"},
      {"compound": "O=C(COC(=O)C1CC1)c1c[nH]c2ccccc12", "Potency": "inactive"},
      {"compound": "CC(c1ccco1)N(C(=O)c1ccccc1NS(=O)(=O)c1ccc(Cl)c([N+](=O)[O-])c1)c1ccccn1", "note": "(stereo unspecified)", "Potency": "inconclusive: 15.8 µM [inhibitor, partial curve]"},
      {"compound": "Cc1ccccc1Nc1nnc(SCC(=O)NC(=O)NCc2ccco2)s1", "Potency": "inconclusive: 31.6 µM [inhibitor, single point]"},
      {"compound": "COC(=O)C1=C(CSc2nccn2C)NC(=O)NC1c1cc(C)ccc1C", "note": "(stereo unspecified)", "Potency": "inactive"},
      {"compound": "COc1ccc(-c2[nH]c3ccccc3c2SCCN)cc1", "Potency": "inconclusive: 25.1 µM [inhibitor, partial curve]"},
      {"compound": "Cc1cc(OCC(=O)Nc2cc(-c3nc4ncccc4o3)ccc2C)ccc1Cl", "Potency": "inconclusive: 7.94 µM [inhibitor, full curve, poor fit]"},
      {"compound": "COc1ccc(-n2nc3cc(C)c(NC(=O)c4ccc(-c5ccc(Cl)cc5)o4)cc3n2)cc1", "Potency": "inconclusive: 4.47 µM [inhibitor, full curve]"},
      {"compound": "O=C(O)C1C2C=CC(O2)C1C(=O)NCCCn1ccnc1", "note": "(stereo unspecified)", "Potency": "inconclusive: 39.8 µM [inhibitor, single point]"},
      {"compound": "COc1ccc(-c2nc(C)c(C(C)=O)n2O)cc1", "Potency": "inactive"},
      {"compound": "NC(=O)c1ncn([C@@H]2O[C@H](CO)[C@@H](O)[C@H]2O)n1", "Potency": "inactive"},
      {"compound": "NC(=S)Cc1nc(-c2ccc(Cl)cc2)cs1", "Potency": "active: 15.8 µM"},
      {"compound": "N=c1n(-c2ccccc2)c(O)cc(=O)n1-c1ccccc1", "Potency": "inconclusive: 7.94 µM [inhibitor, partial curve]"},
      {"compound": "O=C(NCCN1C(=O)S/C(=C\\c2ccccc2F)C1=O)C1CCCN1C(=O)c1cccs1", "note": "(stereo unspecified)", "Potency": "inconclusive: 31.6 µM [inhibitor, single point]"},
      {"compound": "O=C(CNC(=O)c1ccccc1Br)N/N=C/c1cc(Br)ccc1O", "Potency": "inconclusive: 1.26 µM [inhibitor, partial curve]"},
      {"compound": "Cc1ccc(Cl)cc1N1CCN(C(=O)c2cc3ccc4cccnc4c3[nH]2)CC1", "Potency": "inconclusive: 1.41 µM [inhibitor, full curve]"},
      {"compound": "CCC(CC)(CC(=O)Nc1cccc(/C=C/c2nc(C3CCC3)cs2)c1)C(=O)O", "Potency": "inconclusive: 25.1 µM [inhibitor, single point]"},
      {"compound": "CCCn1c(SCC(=O)NCCc2ccccc2)nnc1-c1cccnc1", "Potency": "inactive"},
      {"compound": "CCSc1nc2ccccc2n1CCOc1ccccc1", "Potency": "inconclusive: 39.8 µM [inhibitor, partial curve]"}
    ]}
  ]
}
